Hit rate of the full screen: of about 150,000 compounds, about 540 (0.36%) showed an effect of 50% or more. The list shows a part of the results.
test system: Plasmodium falciparum; assay: Primary screen in NF54 nanoGlo assay, in single point, at 2uM, 72h; a lower Z score goes with more inhibition; format: functional, Erythrocyte; conditions: timepoint 72 hour

Row | Compound | % Inhibition [%] | Z score
1 | C[C@@H](CNC(=O)c1cncc(-c2ccc3c(c2)CCO3)c1)Cn1ccnc1 | 1 | -0.06
2 | COc1ccccc1OS(=O)(=O)[C@H]1CCCN(C(=O)C2CCCC2)C1 | 10 | -1.3
3 | O=C(Cn1c(=O)c(N2CCCCC2)nc2ccccc21)Nc1ccccc1 | -7 | 0.7
4 | O[C@H]1CN[C@H](c2nc(-c3ccc4c(c3)OCO4)no2)C1 | -6 | 0.94
5 | O=C(NCC1CCN(Cc2ccco2)CC1)c1ccc(Cl)cc1Cl | -7 | 1.13
6 | CCOc1ccc(-c2cc(C(=O)NC[C@H]3CCCO3)cc3cc(OC)c(OC)cc23)cc1 | 10 | -2
7 | O=C(c1ccc2cccc(Cl)c2n1)N1CCC2(CCCC2)C1 | -2 | 0.3
8 | CC(=O)Nc1cc(-c2ccoc2)nn1-c1ccccc1 | -14 | 2.22
9 | CC(C)CN(C(=O)[C@@H]1COCCO1)C1CC1 | 10 | -1.2
10 | O=C(COc1ccc(C(=O)O)cc1Br)NC1CCCC1 | -3 | 0.56
11 | O=C(OC1CCCCC1)c1ccc2c(c1)C(=O)N(c1cc(Cl)ccc1Cl)C2=O | -4 | 0.54
12 | CCN(CCC(F)(F)F)C(=O)c1ccc(C)c(F)c1 | -4 | 0.42
13 | O=C(CCc1nccs1)N1CC2(CCOC2)C1 | -8 | 1.4
14 | C=C1C(C(=O)Nc2ccc(OCc3ccccc3)cc2)C1C(=O)Nc1ccc(OCc2ccccc2)cc1 (stereo not drawn) | 1 | -0.1
15 | CC1CCN(S(=O)(=O)c2ccc3c(ccc(=O)n3CC(=O)N3CCCC3)c2)CC1 | -5 | 0.65
16 | Cc1ncc(CN2CCN(Cc3cnc(C)nc3)[C@@H](CO)C2)cn1 | -7 | 0.88
17 | Cc1ccoc1-c1nnc(CNC(C)C(C)n2cccn2)o1 (stereo not drawn) | -5 | 0.62
18 | Cc1noc(C)c1CC(=O)NS(=O)(=O)N1CCc2ccccc2C1 | 4 | -0.68
19 | Cc1c(Cl)cccc1NC(=O)CCNc1ncnc2onc(C)c12 | 9 | -1.01
20 | CCc1nn(-c2ccc(OC)cc2)c(Oc2ccccc2C)c1CCC(=O)NCc1cccnc1 | 19 | -2.1
21 | C[C@@H](CN1CCCC1=O)NC(=O)Nc1ccncc1F | -5 | 0.69
22 | COCc1cc(-c2nc3c([nH]2)CCCNC3=O)n[nH]1 | -8 | 1.54
23 | CCn1cc(CNC(=O)C2NCCC3CCCCC32)nn1 (stereo not drawn) | -3 | 0.54
24 | NC(=O)c1c(NC(=O)Cn2nnc3ccccc32)sc2c1CCC2 | -14 | 1.22

— ChEMBL document CHEMBL4888484, “Replenishing the malaria drug discovery pipeline: Screening and hit evaluation of the MMV Hit Generation Library 1 (HGL1) against asexual blood stage Plasmodium falciparum ,using a nano luciferase reporter read-out” (2022)
